Reference: PubChem BioAssay (NCATS)
The other results are listed elsewhere or left out. Further columns of the screen follow, without active or inactive calls. For some assays here: Compounds called inactive in the main read-out are mostly missing here. The note in brackets gives the kind of curve behind each potency; many fits are weak.

Columns and labels:
[1] = qHTS drug screen for cell cycle checkpoint inhibitors in PARPi-resistant BRCA-mutant ovarian cancer cell lines. (AID 1963452); conditions: PEO1/OlaR viability, CellTiter-Glo luminescence, 96 h
In short: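 PEO1, PEO4 and PEO1/OlaR ovarian cancer cells, 600 per well, exposed 96 h at 37C to a dilution series. Viability read by CellTiter-Glo luminescence, normalized to DMSO and empty wells; activity summarized as Z-AUC.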

[2] = qHTS for identification of novel therapeutic agents for treatment of microphthalmiaassociated transcription factor (MiT) renal cell carcinoma (RCC) (AID 1963991); conditions: CellTiter-Glo, 48 h; for z-score: stronger effect = lower value
In short: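 Curves over 11 concentrations were fitted to CellTiter-Glo luminescence, scaled between empty wells (0%) and DMSO (100%) viability. Cells were UOK109, UOK124 and UOK145 TFE3-fusion RCC lines at 500/well, exposed 48 hours at 37 C.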

[3] = S16 Schwann cell PMP22 intronic element beta-lactamase assay (AID 624044); conditions: S16 rat Schwann cells, PMP22 element beta-lactamase FRET, 24 h; further: nearly all actives have a fitted effect of over 15% in size
In short: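 Beta-lactamase reporter under a PMP22 intronic regulatory element in stable S16 rat Schwann cells; 24 h compound exposure. 460 nm blue signal normalized between DMSO (0%) and potassium clavulanate, with 535 nm FRET tracking viability; curves classed by r2 and response.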

[4] = measured here: PEO1 parental viability
[5] = TFE3-RCC UOK109 viability, measured here: UOK109 Z-AUC
[6] = TFE3-RCC viability, measured here: UOK124 Z-AUC
[7] = TFE3-RCC viability, measured here: UOK124 cell viability
[8] = TFE3-RCC viability, measured here: UOK145 Z-AUC
[9] = TFE3-RCC viability, measured here: UOK145 cell viability
Tags describe the fitted curve by direction and shape.

| SMILES | AC50 [1, 4] | AC50 ([1]; measured here: PEO4 viability) | z-score [2, 5] | z-score [2, 6] | AC50 [2, 7] | z-score [2, 8] | AC50 [2, 9] | AC50 ([3]; measured here: 460 nm blue channel) | AC50 ([3]; measured here: 530 nm viability channel) |
| --- | --- | --- | --- | --- | --- | --- | --- | --- | --- |
| COc1cc2c(Nc3ccc(NC(=O)c4ccccc4)cc3)ncnc2cc1OCCCN1CCOCC1 | 17.4 µM [falling, single point] | 9.77 µM [falling, partial curve] | 0.329 | -0.139 | 18.7 µM [falling, partial curve] | -0.452 | 20.9 µM [falling, partial curve] | – | – |
| Clc1ccc(C(c2ccc(Cl)cc2)n2cc[n+](CC(OCc3ccc(Cl)cc3Cl)c3ccc(Cl)cc3Cl)c2)cc1 (centres undefined) | 5.49 µM [falling, partial curve] | 3.89 µM [falling, full curve] | 0.376 | -0.254 | 23.5 µM [falling, partial curve] | 0.755 | 33.2 µM [falling, single point] | – | – |
| O=C(NC1CC1)c1cccc(-c2ccc3c(NC(=O)C4CC4)n[nH]c3c2)c1 | 1.74 µM [falling, full curve] | 2.19 µM [falling, full curve] | 0.405 | -0.565 | 10.5 µM [falling, full curve] | -0.372 | 16.6 µM [falling, partial curve] | – | – |
| Clc1ccc(C(Cn2ccnc2)OCc2ccsc2Cl)c(Cl)c1 (centres undefined) | 21.9 µM [falling, single point] | 13.8 µM [falling, partial curve, poor fit] | 0.00699 | 0.176 | 33.2 µM [falling, single point] | 1.98 | – | 22.4 µM [falling, partial curve, poor fit] | 1.78 µM [falling, full curve] |
